Legend:
[1] = molecular target: T1, human Prostate-Specific Membrane Antigen (PSMA) expressed on cells (human, UniProt Q04609); test: flow cytometry histograms on the wt line 293T-LP81-PSMA (CL571), secondary mouse anti human IgG2 stain
T1 construct: also called FOLH1; HEK293T-PSMA

[2] = molecular target: T2, human PSMA with Y75H SNP, expressed on HEK293T cells (human, UniProt Q04609); test: flow cytometry histograms on the Y75H PSMA HEK293T line, secondary mouse anti human IgG2 stain
T2 construct: also called PSMA-Y75H; PSMA isoform SNP Y75H
Excerpt: HEK293T cell lines were generated to express PSMA with a Y75H single nucleotide polymorphism (SNP). PSMA 1 and PSMA 2 scFvs were used to stain the PSMA-Y75H cell line followed by a secondary mouse anti human IgG2 stain. […] Thus, both PSMA 1 and PSMA 2 could bind to various isoforms of PSMA.

binding result [1] | binding result [2] | Binder
binds | binds | PSMA 1 scFv (scFv, It was detected with a secondary 'mouse anti human IgG2' stain) scFv: [gap - about 100 residues]GGGGSGGGGSGGGGSQVQLVQSGPEVKKPGASVKVSCKASGYTFTSYGITWVRQAPGQGLEWMGWISEYNGNTNYAQKFQGRVTMTIDTSTTTAYMELRSLRSDDTAVYFCARGGILPYYFFYYMDVWGKGTTVTVSS
binds | binds | PSMA 2 scFv (scFv, It was detected with a secondary 'mouse anti human IgG2' stain) scFv: EIVLTQSPATLSLSPGERATLS[gap - about 80 residues]TFGQGTKLEIKGGGGSGGGGSGGGGSQVQLVQSGAEVKKPGASVKVSCKASGYTFSSYGVSWVRQAPGQGLEWMGWISKYNGNTNYAQKFQGRVTMTTDTSTSTAYMELRSLRSDDTAVYFCARGGIHGDSYYFYYLDVWGKGTTVTVSS

— US20240342284A1 (ARSENAL BIOSCIENCES, published 2024)
